The results in this text go back to paper PMC11024108.

What all share (assay): cross-link between two proteins; cross-linking mass spectrometry
Experiment [1] concerns the target T1, 26S proteasome non-ATPase regulatory subunit 1 (UniProt Q3TXS7).
T1 sequence: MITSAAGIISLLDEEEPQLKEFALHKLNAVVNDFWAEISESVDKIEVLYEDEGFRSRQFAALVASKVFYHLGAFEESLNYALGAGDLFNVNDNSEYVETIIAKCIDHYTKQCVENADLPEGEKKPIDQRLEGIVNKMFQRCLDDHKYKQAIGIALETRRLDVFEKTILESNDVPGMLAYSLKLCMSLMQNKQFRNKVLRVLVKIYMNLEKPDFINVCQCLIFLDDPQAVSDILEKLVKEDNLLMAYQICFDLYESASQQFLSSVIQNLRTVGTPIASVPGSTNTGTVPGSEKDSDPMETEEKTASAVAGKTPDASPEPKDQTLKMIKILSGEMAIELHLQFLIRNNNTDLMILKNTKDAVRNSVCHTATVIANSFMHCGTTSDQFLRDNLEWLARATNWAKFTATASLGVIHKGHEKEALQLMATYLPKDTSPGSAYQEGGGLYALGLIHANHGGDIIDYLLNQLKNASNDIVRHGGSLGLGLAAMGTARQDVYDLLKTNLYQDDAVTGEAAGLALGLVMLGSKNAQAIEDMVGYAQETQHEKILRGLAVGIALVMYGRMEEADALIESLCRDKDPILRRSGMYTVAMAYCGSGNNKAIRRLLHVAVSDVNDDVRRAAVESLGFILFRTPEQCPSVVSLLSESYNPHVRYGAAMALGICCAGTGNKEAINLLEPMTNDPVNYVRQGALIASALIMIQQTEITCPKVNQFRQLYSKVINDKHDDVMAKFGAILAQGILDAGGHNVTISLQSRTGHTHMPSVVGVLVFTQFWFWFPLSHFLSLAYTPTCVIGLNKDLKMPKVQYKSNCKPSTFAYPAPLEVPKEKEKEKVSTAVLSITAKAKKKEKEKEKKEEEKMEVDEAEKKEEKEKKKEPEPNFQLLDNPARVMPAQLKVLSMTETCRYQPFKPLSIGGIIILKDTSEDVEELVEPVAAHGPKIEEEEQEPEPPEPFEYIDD

For another experiment, the target named is Renin receptor (UniProt Q9CYN9).
Sequence of UniProt Q9CYN9 (Q9CYN9 whole entry): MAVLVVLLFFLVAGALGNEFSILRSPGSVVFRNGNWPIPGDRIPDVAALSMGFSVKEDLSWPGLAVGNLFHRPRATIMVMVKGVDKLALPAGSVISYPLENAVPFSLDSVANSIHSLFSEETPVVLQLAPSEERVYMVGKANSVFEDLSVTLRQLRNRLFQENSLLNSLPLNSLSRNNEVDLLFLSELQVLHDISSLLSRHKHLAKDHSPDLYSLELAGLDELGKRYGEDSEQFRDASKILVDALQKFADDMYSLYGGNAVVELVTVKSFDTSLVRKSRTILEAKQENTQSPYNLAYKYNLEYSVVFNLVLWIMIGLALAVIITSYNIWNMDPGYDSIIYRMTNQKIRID
For experiment [2], the target named is V-type proton ATPase 116 kDa subunit a 1 (UniProt Q9Z1G4).
Sequence of UniProt Q9Z1G4 (Q9Z1G4 whole entry): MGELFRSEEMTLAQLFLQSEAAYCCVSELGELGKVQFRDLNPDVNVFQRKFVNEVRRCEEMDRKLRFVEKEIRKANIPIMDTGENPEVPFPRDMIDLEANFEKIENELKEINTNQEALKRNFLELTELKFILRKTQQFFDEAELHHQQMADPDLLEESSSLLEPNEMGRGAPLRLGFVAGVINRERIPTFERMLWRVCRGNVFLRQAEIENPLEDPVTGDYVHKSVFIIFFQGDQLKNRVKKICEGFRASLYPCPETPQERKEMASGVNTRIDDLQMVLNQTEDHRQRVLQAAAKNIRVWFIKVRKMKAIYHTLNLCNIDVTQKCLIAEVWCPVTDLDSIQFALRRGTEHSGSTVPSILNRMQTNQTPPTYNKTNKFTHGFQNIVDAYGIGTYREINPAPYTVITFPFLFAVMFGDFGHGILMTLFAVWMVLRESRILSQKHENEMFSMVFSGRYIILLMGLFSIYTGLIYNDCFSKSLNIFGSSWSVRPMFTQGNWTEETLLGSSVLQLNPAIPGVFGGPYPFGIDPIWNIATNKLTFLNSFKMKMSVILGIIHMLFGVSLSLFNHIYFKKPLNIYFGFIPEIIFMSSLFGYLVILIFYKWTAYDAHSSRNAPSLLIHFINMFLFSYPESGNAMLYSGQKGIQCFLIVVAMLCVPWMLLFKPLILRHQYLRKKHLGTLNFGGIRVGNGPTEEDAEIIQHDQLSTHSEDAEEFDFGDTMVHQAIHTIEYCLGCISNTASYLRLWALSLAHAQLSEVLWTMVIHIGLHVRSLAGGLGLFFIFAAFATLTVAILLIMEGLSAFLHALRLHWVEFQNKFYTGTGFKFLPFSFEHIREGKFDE
In experiment [3] the target is Solute carrier family 25 member 3 (UniProt Q00325).
Sequence of UniProt Q00325 (Q00325 whole entry): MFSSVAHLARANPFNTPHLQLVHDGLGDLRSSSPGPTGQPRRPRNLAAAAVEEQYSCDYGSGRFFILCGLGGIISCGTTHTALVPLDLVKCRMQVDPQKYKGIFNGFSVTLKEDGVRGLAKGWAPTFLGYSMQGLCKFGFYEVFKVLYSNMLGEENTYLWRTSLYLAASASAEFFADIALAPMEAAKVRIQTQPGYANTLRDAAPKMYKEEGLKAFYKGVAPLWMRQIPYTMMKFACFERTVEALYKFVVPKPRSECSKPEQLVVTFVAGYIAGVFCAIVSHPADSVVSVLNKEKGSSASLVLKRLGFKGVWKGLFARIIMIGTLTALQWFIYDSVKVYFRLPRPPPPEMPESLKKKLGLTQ

Sequence of V-type proton ATPase subunit d 1 (chain, as listed by the source): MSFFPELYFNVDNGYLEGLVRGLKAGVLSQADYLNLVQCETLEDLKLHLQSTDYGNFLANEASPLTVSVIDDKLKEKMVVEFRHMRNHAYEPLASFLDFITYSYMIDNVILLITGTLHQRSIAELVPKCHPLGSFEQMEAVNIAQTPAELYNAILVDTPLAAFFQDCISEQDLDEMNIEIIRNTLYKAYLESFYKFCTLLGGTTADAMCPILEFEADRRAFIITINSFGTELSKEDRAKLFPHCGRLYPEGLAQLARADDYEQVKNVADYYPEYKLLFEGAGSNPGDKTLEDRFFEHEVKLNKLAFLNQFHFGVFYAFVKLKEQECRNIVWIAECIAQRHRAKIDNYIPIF
Sequence of 26S proteasome regulatory subunit 8 (chain, as listed by the source): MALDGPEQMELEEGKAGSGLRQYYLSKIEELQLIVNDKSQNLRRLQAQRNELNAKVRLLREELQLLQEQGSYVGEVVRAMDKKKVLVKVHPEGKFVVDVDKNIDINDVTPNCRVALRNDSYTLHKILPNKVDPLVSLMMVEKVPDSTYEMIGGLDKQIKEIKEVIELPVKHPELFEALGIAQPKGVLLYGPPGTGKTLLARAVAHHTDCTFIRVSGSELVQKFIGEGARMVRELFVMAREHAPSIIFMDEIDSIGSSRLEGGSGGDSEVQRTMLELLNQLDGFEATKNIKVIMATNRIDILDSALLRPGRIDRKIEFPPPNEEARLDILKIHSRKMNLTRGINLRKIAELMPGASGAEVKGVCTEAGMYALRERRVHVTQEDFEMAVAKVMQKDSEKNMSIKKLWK
Sequence of Cytochrome c oxidase subunit 4 isoform 1, mitochondrial (chain, as listed by the source): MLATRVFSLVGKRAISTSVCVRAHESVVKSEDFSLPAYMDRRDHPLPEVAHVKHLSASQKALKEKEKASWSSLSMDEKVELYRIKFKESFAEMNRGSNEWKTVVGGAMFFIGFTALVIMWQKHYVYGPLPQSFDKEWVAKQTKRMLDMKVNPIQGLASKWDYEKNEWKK

Regarding 26S proteasome regulatory subunit 8, the “listed as a hit” value in experiment [1] was “yes”. For V-type proton ATPase subunit d 1, the “listed as a hit” value (in the experiment with Renin receptor; in experiment [2]) was “yes” each time. For “Cytochrome c oxidase subunit 4 isoform 1, mitochondrial”, the “listed as a hit” value in experiment [3] is recorded as “yes”.
